In the supplement of paper PMC9513381:
Residue numbers refer to the chain shown, from its start. Recombinant human monoclonal antibodies (heavy:light variable regions). ELISA EC50 on the named antigen, from 10 µg/ml down; IC50 / IC90 against spike pseudovirus on 293T-ACE2 cells, 48 h; lower = stronger. Calls: IC50 above 1,000 ng/ml = non-neutralizing; EC50 above 1,000 ng/ml = non-binder. The source prints 1000 for neutralization that was not reached; it is given as >1000 ng/ml. Only binders of the Wuhan-Hu-1 domain have neutralization values.

B1: B661 (protein)
chain 1: EVQLVESGGGLIQPGGSLRLSCAASGLTVSSNYMNWVRQAPGKGLEWVSIIYSGGTTYYAESVKGRFTISRDNSKNTLYLQMNSLRAEDTAVYYCAREAYGMDVWGQGTTVTVS
chain 2: DIQLTQSPSFLSTSVGDRVTITCRASQGISRSLAWYQQKPGKAPKLLIYETSTLQSGVPSRFSGSGSGTDFTLTISSLQPEDFATYYCEHLNSYPTFGQGTRLEIK
B2: B656 (protein)
chain 1: QVQLVQSGAEVKKPGASVKVSCKASGYTFTSYEIIWVRQATGQGLEWMAWMNPNNPNTAYKQKFRGRITLTRDTSRSTAYMELTSLTSEDTAVYFCARVGGLTGASDYWGQGTLVTVSS
chain 2: SYVLTQPPSVSVAPGKTARIPCGGNNLGSKNVHWYQQKPGQAPVLVVYDDSDRPSGIPERFSGSNSGNTATLTISRVEAGDEADYYCQVWDGTTDVFYVFGSGTKVTVL
B3: B653 (protein)
chain 1: QVQLVQSGAEVKKPGASVKVSCTASGYTSIDYFMHWVRQAPGQGLEWMGRINPNSGGTNYAPKFQGRVTMTRDTSINIAYMELSRLRSDDTAVYYCANTGSWRQENWYFELWGRGTLVIVSS
chain 2: DIVMTQTPLSLPVTPGEPASISCRSSQSLLGSDDGNTYLDWYLQRPGQSPQLLIYSLSYRASGVPDRFSGSGSGTDFTLKISRVEAEDVGVYYCMHRIEFPFTFGPGTKVDI
B4: B654 (protein)
chain 1: B3 chain 1 with A24S, M34V, I51V, A79V, F109L, E110Q
chain 2: B3 chain 2 with P12A, G31R, V91I, I98V, T103I
B5: B660 (protein)
chain 1: EVQLVQSGAEVKKPGESLKISCKTSGYNFNIYWIGWVRQMPGKGLKWMGIIFPGDSDTRYGPSFQGQVTISTDKSISTAYLQWSSLKASDTGMYYCARVASPEGFTTGWNGRGPDEAFDIWGQGTPVTVS
chain 2: QSVLTQPPSASGTPGQRVTISCSGGSSNIGSNYVYWYQHLPGTAPKLLIYRNDQRPSGVPDRFSGSKSGTSASLAISGLRSEDETDYYCATWDDSLSAGVFGGGTKLTVL
B6: B658 (protein)
chain 1: QVQLVQSGAEVKKPGASVKVSCEASGYNFMSYGISWVRQAPGQGLEWMGWISVYNDYTHYAQKLQGRVTMTTDTSTSTAYMELRSLRSDDTAVYYCAREGFCSGSNCYRGTYNYYGMDVWGQGTTVTVSS
chain 2: EIVLTQSPATLSLSPGERVTLSCRASQSVSSYLAWYQQKPGQAPRLLIYDASNRATGIPARFSGSGSGTDFTLTISSLEPEDFAVYYCQQRRDAGSFGGGTKVEIQ
B7: B2106 (protein)
chain 1: EVQLVESGGALQQPGRSLTLSCAASGFTFEDYAMHWVRQAPGKGLEWVSGITWTGGMIDYADSVKGRFIISRDNAKKSLYLHMRGLRPEDTALYYCARGSRSGSYHLRDHFYGMDVWGQGTTVTVSS
chain 2: DIQMTQSPSTLSASVGDRVTITCRASQNINSWLAWYQQKPGKAPKLVIYDASDLESGVPSRFSGSGSGTEFTLTITSLQPDDFATYYCQQYKAYWSFGQGTKVEIK
B8: B1105 (protein)
chain 1: QVQLVQSGAEVKKPGSSVKVSCKASGGTFSSYAISWVRQAPGQGLEWMGGIIPISGTAYYAQRFQGRVTITADKSTSTAYMDLSSLRSEDTAIYYCATLQIVVPAAVPPDGGYYFYYYGMDVWGQGTTVTVSS
chain 2: not shown
B9: B1104 (protein)
chain 1: QVQLVQSGAEVKTPGASVKLSCKASGYTFSNYYIHWVRQAPGQGLEWMGIINPSGGGTSYAQKFQGRVAMTRDTSTSTVYMKLSSLTSEDTAVYYCAYTSTTVTTSGFDYWGQGTLVTVSS
chain 2: SYVLTQPPSVSVAPGQTARITCGENDIGSKSVHWYQQRPGQAPVLVVYDDSDRPSGIPERFSGSNSGNPATLTISRVEAGDEADYYCQVWDSSSDHGHVVFGGGTKLTVL
B10: B659 (protein)
chain 1: EVQLVESGGGLVQPGRSLRLSCAASGFYFDDYAMHWVRQAPGKGLEWVSGISWNSGTVVYADSVKGRFTISRDNAQKSLYLQVNSLTVEDTALYYCAKDTRSHNDILAGYHGIDYWGQGILVIVSS
chain 2: DIVMTQSPLSLPVTPGEPASISCRSSQSLLHSNGHTYLDWYLQKPGQSPQLLIYMGSNRASGVPDRFSGSGSGTDFTLKISRVEAEDVGVYYCMQALQTPPTFGGGTKVEIK
B11: B657 (protein)
chain 1: QVQLVQSGAEVKKPGASVKVSCKASGYSFTSYLMHWVRQAPGQGLEWMGIINPSGGGRTYAQKFQGRVTMTRDTSTGIVYMELSSLRSEDTALYYCAREHGGNSLFDYWGQGTRVTVSS
chain 2: DIQMTQSPSSLSASVGDRVTITCRASQSISRYLNWYQQKPGKAPNVLIYAASTLQSGVPSRFSGSGSGTDFTLTISGLQPEDFATYYCQQSYNSLGVTFGGGTKVEIK
B12: B652 (protein)
chain 1: EVQLLESGGGLVQPGGSLRLSCAASGFTFTRYAMNWVRQAPGKGLEWVSGIGGYGGSTNYADAVKGRFTISRDDSKNTVYLQMNSLRGEDTAVYHCAKGPRSSFDYFDSWGQGTLVTVSS
chain 2: DIQMTQSPSTLSASVGDRVTITCRASQTISTWLAWYQQKPGRAPKLLIYDASSLESGVPSRFSGSGSGTEFTLTISSLQPDDFATYYCQQYNSYPWTFGQGTKVDI
B13: B651 (protein)
chain 1: EVQLLESGGDLVRPGGSLRLSCAASGFMFRRYAMNWVRQAPGKGLEWVSGISGSGDKTCYAESVKGRFTISRDNSKNTLYLQMSGLKAEDTAIYYCAKGPRSSFDYFESWGQGTLVTVSS
chain 2: DIQMTQSPSTLSASVGDRVTITCRASQSISNWLAWYQQKPGKAPKLLIYDASSLESGVPSRFSGSGSGTEFTLTISSLQPDDFATYYCQHYNSCPWTFGQGTKVEIK
B14: B655 (protein)
chain 1: EVQLVESGGGLIQPGGSLRLSCVASEIIVSSNYMSWVRQAPGKGLEWVSVIYPGGSTFYADSVKGRFTISRDSSKNTLSLQMNSLRDEDTAMYYCAREGLVGGMLAFDIWGQ
chain 2: DIQLTQSPSFLSASVGDRVTITCRASQGISSYLAWYQQKPGKAPKLLIYAASTLQSGVPSRFSGSGSGTEFTLTISSLQPEDFAIYYCQRLNSSPAEITFGQGTRLEIK

Each binder was assayed against SARS-CoV-2 Wuhan-Hu-1 spike pseudovirus (assay: pseudovirus neutralization IC50; higher = weaker neutralization).
Experimental: (§1)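 Single-round luciferase reporter pseudovirus mixed with antibody dilutions and put on 293T-ACE2 cells for 48 h; signal relative to no-antibody wells, four-parameter fit.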
In the case of B1, the “pseudovirus neutralization IC50” value is reported as 8.51 ng/mL. B2 was tested, and the “pseudovirus neutralization IC50” value was over 1000 ng/mL. For B3, the “pseudovirus neutralization IC50” value was 6.76 ng/mL. In the case of B4, the “pseudovirus neutralization IC50” value is reported as 4.24 ng/mL. In the case of B5, the “pseudovirus neutralization IC50” value is reported as 72.8 ng/mL. In the case of B6, the “pseudovirus neutralization IC50” value is reported as 13.5 ng/mL. In the case of B7, the “pseudovirus neutralization IC50” value is reported as 157 ng/mL. B8 was tested, and the “pseudovirus neutralization IC50” value was over 1000 ng/mL. B9 was tested, and the “pseudovirus neutralization IC50” value was over 1000 ng/mL. For B10, the “pseudovirus neutralization IC50” value was 36.7 ng/mL. B11 was tested, and the “pseudovirus neutralization IC50” value was 9.67 ng/mL. With B12 the “pseudovirus neutralization IC50” value was over 1000 ng/mL. B13 was tested, and the “pseudovirus neutralization IC50” value was over 1000 ng/mL. In the case of B14, the “pseudovirus neutralization IC50” value is reported as 8.59 ng/mL.

The binders below were run against SARS-CoV-2 Wuhan-Hu-1 spike pseudovirus (assay: pseudovirus neutralization IC90; higher = weaker neutralization).
Experimental: as §1
B1 was tested, and the “pseudovirus neutralization IC90” value was 41.8 ng/mL. For B2, the “pseudovirus neutralization IC90” value was over 1000 ng/mL. For B3, the “pseudovirus neutralization IC90” value was 13.6 ng/mL. B4 was tested, and the “pseudovirus neutralization IC90” value was 9.82 ng/mL. For B5, the “pseudovirus neutralization IC90” value was over 1000 ng/mL. In the case of B6, the “pseudovirus neutralization IC90” value is reported as 43.2 ng/mL. In the case of B7, the “pseudovirus neutralization IC90” value is reported as over 1000 ng/mL. B8 was tested, and the “pseudovirus neutralization IC90” value was over 1000 ng/mL. In the case of B9, the “pseudovirus neutralization IC90” value is reported as over 1000 ng/mL. In the case of B10, the “pseudovirus neutralization IC90” value is reported as 237 ng/mL. For B11, the “pseudovirus neutralization IC90” value was 31.9 ng/mL. With B12 the “pseudovirus neutralization IC90” value was over 1000 ng/mL. In the case of B13, the “pseudovirus neutralization IC90” value is reported as over 1000 ng/mL. B14 was tested, and the “pseudovirus neutralization IC90” value was 31.6 ng/mL.

These binders were tested against SARS-CoV-2 Delta (B.1.617.2) spike RBD (assay: ELISA binding EC50; higher = weaker binding; ELISA of recombinant human antibody on coated antigen, from 10 µg/ml in fourfold dilutions; four-parameter fit.).
For B1, the “ELISA binding EC50” value was 6.25 ng/mL. For B2, the “ELISA binding EC50” value was 6.8 ng/mL. With B3 the “ELISA binding EC50” value was 3.04 ng/mL. For B4, the “ELISA binding EC50” value was 1.46 ng/mL. With B5 the “ELISA binding EC50” value was 71.8 ng/mL. With B6 the “ELISA binding EC50” value was 3.57 ng/mL. For B7, the “ELISA binding EC50” value was over 1000 ng/mL. For B8, the “ELISA binding EC50” value was 97.9 ng/mL. In the case of B9, the “ELISA binding EC50” value is reported as 90.2 ng/mL. In the case of B10, the “ELISA binding EC50” value is reported as 2.23 ng/mL. For B11, the “ELISA binding EC50” value was 3.87 ng/mL. With B12 the “ELISA binding EC50” value was 4.42 ng/mL. For B13, the “ELISA binding EC50” value was 7.33 ng/mL. B14 was tested, and the “ELISA binding EC50” value was 3 ng/mL.

These binders were tested against SARS-CoV-2 Omicron BA.1 spike protein in the same assay as above.
In the case of B1, the “ELISA binding EC50” value is reported as over 1000 ng/mL. B2 was tested, and the “ELISA binding EC50” value was 5.86 ng/mL. For B3, the “ELISA binding EC50” value was over 1000 ng/mL. With B4 the “ELISA binding EC50” value was 715 ng/mL. With B5 the “ELISA binding EC50” value was over 1000 ng/mL. For B6, the “ELISA binding EC50” value was 30.3 ng/mL. B7 was tested, and the “ELISA binding EC50” value was over 1000 ng/mL. B8 was tested, and the “ELISA binding EC50” value was 17.6 ng/mL. With B9 the “ELISA binding EC50” value was 125 ng/mL. With B10 the “ELISA binding EC50” value was 6.86 ng/mL. B11 was tested, and the “ELISA binding EC50” value was over 1000 ng/mL. In the case of B12, the “ELISA binding EC50” value is reported as 2.87 ng/mL. For B13, the “ELISA binding EC50” value was 27.8 ng/mL. For B14, the “ELISA binding EC50” value was over 1000 ng/mL.

The binders below were run against SARS-CoV-2 Wuhan-Hu-1 spike receptor-binding domain in the same assay as above.
With B1 the “ELISA binding EC50” value was 0.982 ng/mL. In the case of B2, the “ELISA binding EC50” value is reported as 2.48 ng/mL. With B3 the “ELISA binding EC50” value was 1.32 ng/mL. For B4, the “ELISA binding EC50” value was 0.819 ng/mL. For B5, the “ELISA binding EC50” value was 5.61 ng/mL. B6 was tested, and the “ELISA binding EC50” value was 2.48 ng/mL. With B7 the “ELISA binding EC50” value was 3.25 ng/mL. For B8, the “ELISA binding EC50” value was 3.53 ng/mL. For B9, the “ELISA binding EC50” value was 2.21 ng/mL. For B10, the “ELISA binding EC50” value was 1.49 ng/mL. In the case of B11, the “ELISA binding EC50” value is reported as 1.1 ng/mL. In the case of B12, the “ELISA binding EC50” value is reported as 0.755 ng/mL. With B13 the “ELISA binding EC50” value was 0.856 ng/mL. For B14, the “ELISA binding EC50” value was 1.12 ng/mL.
